In all, about 39,000 compounds went through this assay and about 220 (0.56%) showed activity. The list shows a part of the results.
System: Escherichia coli K-12 BW25113
Assay: relative growth (OD600 normalised to plate interquartile mean) (fraction); higher = less growth inhibition, active = 0.2 or less
Conditions: 50 µM; LB; incubation time: overnight (16-24 h)
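Note: static incubation at 37 °C against the wild-type strain, values averaged over two biological replicates.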

Row | Compound | relative growth
1 | C[C@@H]1CCCCO[C@H](CN(C)Cc2ccc3c(c2)OCO3)[C@H](C)CN([C@@H](C)CO)C(=O)c2cc(NS(=O)(=O)c3cccs3)ccc2O1 | inactive: 1.01
2 | COCCOC(=O)N1C(=O)[C@@]2(c3cc(C#CC4(O)CCCCCC4)ccc31)[C@H](c1ccc(O)cc1)N1[C@H](c3ccccc3)[C@H](c3ccccc3)OC(=O)[C@H]1[C@@H]2C(N)=O | inactive: 1.03
3 | C[C@@H]1CCCCO[C@H](CN(C)C(=O)C2CCCCC2)[C@@H](C)CN([C@@H](C)CO)C(=O)c2cc(NC(=O)Cc3ccccc3)ccc2O1 | inactive: 0.972
4 | C[C@H](CO)N1C[C@H](C)[C@@H](CN(C)C(=O)Nc2ccc(F)cc2)Oc2c(NC(=O)Nc3cccc4ccccc34)cccc2C1=O | inactive: 0.995
5 | C[C@@H]1CCCCO[C@H](CN(C)C(=O)NC2CCCCC2)[C@@H](C)CN([C@H](C)CO)C(=O)c2cc(NS(=O)(=O)c3ccccc3)ccc2O1 | inactive: 0.983
6 | C[C@@H]1CN([C@@H](C)CO)C(=O)c2cc(NS(C)(=O)=O)ccc2O[C@@H](C)CCCCO[C@H]1CN(C)CC1CC1 | inactive: 0.992
7 | NCc1ccc2occc2c1 | inactive: 0.998
8 | C[C@H]1CN([C@@H](C)CO)C(=O)Cc2cc(NC(=O)Nc3cccc4ccccc34)ccc2O[C@@H]1CN(C)Cc1ccc(C(=O)O)cc1 | inactive: 1.06
9 | Cc1ccc(S(=O)(=O)N(C)C[C@@H]2Oc3ccc(NS(=O)(=O)c4ccccc4)cc3CC(=O)N([C@@H](C)CO)C[C@H]2C)cc1 | inactive: 1.01
10 | CCN(CC)CCNc1ccc(CO)c2sc3ccccc3c(=O)c12 | inactive: 1.03
11 | C[C@@H]1CN([C@H](C)CO)C(=O)c2cc(NC(=O)c3ccncc3)ccc2O[C@H]1CN(C)Cc1ccc(C(=O)O)cc1 | inactive: 0.998
12 | COc1ccc(C#N)nc1 | inactive: 0.95
13 | COc1ccccc1CNC(=O)C[C@@H]1C[C@H]2c3cc(NC(=O)c4ccc5c(c4)OCO5)ccc3O[C@H]2[C@H](CO)O1 | inactive: 1.05
14 | COc1ccc(CN(C)C[C@@H]2Oc3ccc(NC(=O)Cn4cnnn4)cc3CC(=O)N([C@@H](C)CO)C[C@@H]2C)cc1 | inactive: 0.996
15 | COC(=O)NN=Cc1c[n+]([O-])c2ccccc2[n+]1[O-] | inactive: 0.574
16 | O=C(N/N=C/c1ccc(CO)o1)c1ccccn1 | inactive: 1
17 | C[C@@H]1CN([C@H](C)CO)C(=O)Cc2cc(NC(=O)Nc3ccc(C(F)(F)F)cc3)ccc2O[C@H]1CN(C)C(=O)Nc1cccc2ccccc12 | inactive: 1.04

Source: the supplement of paper PMC9446081
